Reference: the supplement of paper PMC4967469
A lower IC50 marks a more sensitive line; where the fit passes the top or lowest dose, that dose stands as a limit. AUC is the area under the same curve over the 256-fold range up to the top dose, as a fraction; values near 1 show little effect. For part of these data: A top dose marked as inferred was calculated from the reported fits. For part of these data: Where an entry number is given, a second screen of the drug exists; the two often differ.

Assays:
Test in all cases: Viability of human cancer cell lines after 72 h of drug (GDSC screen)
[1] = compound: NC(=O)c1cccc(-c2cc(Nc3ccc(OC(F)(F)F)cc3)ncn2)c1 [GNF-2]; settings: top dose 1.28 µM; top dose inferred
Protocol: (§1)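 Human cancer cell lines in 384-well plates, medium with 10% serum, drug for 72 h over a 256-fold dose range (nine 2-fold or five 4-fold steps up to the top dose). Adherent lines were fixed and stained with the nucleic acid dye Syto60, suspension lines read with resazurin; signal relative to control wells, capped at 0 and 100%. One two-parameter sigmoid per drug and line, fitted in a mixed model over all curves with the slope shared within a line.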

[2] = compound: Nc1ccn([C@@H]2O[C@H](CO)[C@@H](O)C2(F)F)c(=O)n1 [Gemcitabine]; settings: top dose 1.024 µM
Protocol: as §1

[3] = compound: C/C(O)=C(\C#N)C(=O)Nc1cc(Br)ccc1Br [LFM-A13]; settings: top dose 16 µM; top dose inferred
Protocol: as §1

[4] = compound: CC(C)c1ccccc1Cc1cc(C(=O)Nc2ccc(S(=O)(=O)c3ccccc3C(C)(C)C)cc2)c(O)c(O)c1O [TW-37]; settings: top dose 5 µM
Protocol: as §1

[5] = compound: CCNC(=O)c1noc(-c2cc(C(C)C)c(O)cc2O)c1-c1ccc(CN2CCOCC2)cc1 [AUY922]; settings: top dose 0.256 µM; top dose inferred
Protocol: as §1

[6] = compound: CC(O)(CS(=O)(=O)c1ccc(F)cc1)C(=O)Nc1ccc(C#N)c(C(F)(F)F)c1 [Bicalutamide]; settings: top dose inferred
Protocol: as §1

[7] = compound: Cc1ccc(Nc2cc(-c3cccc(N4C(=O)c5ccccc5C4=O)c3)ncn2)cc1NS(C)(=O)=O [KIN001-270]; settings: top dose 20 µM; top dose inferred
Protocol: as §1

[8] = compound: O=S(=O)(c1ccccc1)N(CC(F)(F)F)c1ccc(C(O)(C(F)(F)F)C(F)(F)F)cc1 [T0901317]; settings: top dose 10.24 µM; top dose inferred
Protocol: as §1

[9] = compound: S=C(NCc1ccc2c(c1)OCO2)N1CCN(c2ncnc3c2oc2ccccc23)CC1 [MP470]; settings: top dose 20 µM; top dose inferred
Protocol: as §1

[10] = compound: Cc1cn(-c2cc(NC(=O)c3ccc(C)c(Nc4nccc(-c5cccnc5)n4)c3)cc(C(F)(F)F)c2)cn1 [Nilotinib]; settings: top dose 2 µM
Protocol: as §1

[11] = top dose 1.024 µM, screen: GDSC drug entry 150
[12] = top dose 10 µM, screen: GDSC drug entry 1502

Cell Line | AUC [1] | IC50 [1] [nM] | AUC [2] | IC50 [2] [nM] | AUC [3] | IC50 [3] [nM] | AUC [4] | IC50 [4] [nM] | AUC [5] | IC50 [5] [nM] | AUC [6, 11] | IC50 [6, 11] [nM] | AUC [6, 12] | IC50 [6, 12] [nM] | AUC [7] | IC50 [7] [nM] | AUC [8] | IC50 [8] [nM] | AUC [9] | IC50 [9] [nM] | AUC [10] | IC50 [10] [nM]
MDST8 (large intestine, adherent) | 0.988 | > 1280 | 0.468 | 52.4 | 0.986 | > 16000 | 0.474 | 266 | 0.694 | 55.6 | 0.987 | > 1020 | 0.986 | > 10000 | 0.98 | > 20000 | 0.987 | > 10200 | 0.965 | > 20000 | 0.925 | > 2000
ME-1 (acute myeloid leukaemia, suspension) | 0.989 | > 1280 | 0.894 | > 1020 | 0.953 | > 16000 | 0.92 | > 5000 | 0.849 | 213 | 0.988 | > 1020 | 0.987 | > 10000 | 0.989 | > 20000 | 0.989 | > 10200 | 0.989 | > 20000 | 0.967 | > 2000
MEG-01 (chronic myeloid leukaemia, suspension) | 0.783 | 508 | 0.19 | 8.2 | 0.98 | > 16000 | 0.39 | 159 | 0.586 | 27.1 | 0.986 | > 1020 | 0.984 | > 10000 | 0.975 | > 20000 | 0.954 | > 10200 | 0.923 | > 20000 | 0.083 | < 7.81
MFH-ino (soft tissue, adherent) | 0.979 | > 1280 | 0.137 | < 4 | 0.966 | > 16000 | 0.457 | 234 | 0.471 | 13.2 | 0.983 | > 1020 | 0.967 | > 10000 | 0.949 | > 20000 | 0.979 | > 10200 | 0.91 | > 20000 | 0.981 | > 2000
MFM-223 (breast, adherent) | 0.988 | > 1280 | 0.988 | > 1020 | 0.988 | > 16000 | 0.641 | 765 | 0.967 | > 256 | 0.987 | > 1020 | 0.973 | > 10000 | 0.985 | > 20000 | 0.981 | > 10200 | 0.922 | > 20000 | 0.988 | > 2000
MHH-PREB-1 (B-cell leukaemia, suspension) | 0.982 | > 1280 | 0.708 | 230 | 0.986 | > 16000 | 0.386 | 158 | 0.638 | 36.8 | 0.979 | > 1020 | 0.971 | > 10000 | 0.907 | > 20000 | 0.984 | > 10200 | 0.903 | > 20000 | 0.967 | > 2000
